Experimental data as given in PubChem BioAssay AID588855 (National Center for Advancing Translational Sciences (NCATS), 2011).
About 5,000 (1.2%) of roughly 410,000 compounds were called active. Inconclusive results, whose numbers are uncertain, are shown with a selection of clear calls. Calls come from the whole dose curve; as a rule, active = well fitted inhibition curve with a large enough effect; inconclusive = small, poorly fitted or top-dose-only effect; inactive = no such curve, though single readings can be large or run the other way. Where the call is inconclusive, the potency comes from a doubtful curve fit.

Experiment: qHTS for Inhibitors of TGF-b; note: nearly all actives have a fitted effect of over 65% in size
Conditions: HepG2 CAGA-GFP TGF-b/SMAD3 reporter, GFP fluorescence, 18 h, TGF-beta stimulated, 500 pg/mL final; series mostly up to 46.1 µM; activity, negative = inhibition: at the top concentration
Summary of the method: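 Cell-based qHTS in HEPG2 carrying a CAGA-GFP Smad reporter; compounds added before 500 pg/mL final TGF-beta, 18 h incubation at 37 degrees C, GFP fluorescence quantified per cell by imaging cytometry.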
% is set by controls: 0 for no effect and ±100 for the full control effect; potency is the fitted concentration of half-maximal effect; tags give direction and shape of the fitted curve.

SMILES	activity, negative = inhibition	Potency
CCCCOc1ccc(NC(=O)Cn2nnnc2-c2ccccc2F)cc1	inactive: 0%	–
CCOC(=O)C1CCCN(C(=O)C2CCN(C(=O)Nc3ccccc3)CC2)C1 (stereo not drawn)	–	inconclusive: 7.08 µM [inhibitor, partial curve]
COc1cc(NC(=O)COc2cc(C)cc3oc(=O)c(C)c(C)c23)cc(OC)c1OC	inactive: -0.0084%	–
CCCCNc1c(-c2ccc(OC)c(SC3CCCCC3)c2)nc2ccc(C)cn12	–	active: 17.8 µM
CC(C)(C)OC(=O)NCc1ccc(CNC(=O)c2nc[nH]c2C(=O)NCc2ccccc2)cc1	–	inconclusive: 22.4 µM [inhibitor, single point]
Cc1ccc2[nH]c(CSc3nnc(COc4ccccc4C)n3C)cc(=O)c2c1	inactive: -23.5%	–
CCOC(=O)C(=N/O)/C(C)=N/NC(=O)C(=O)Nc1ccc(Cl)cc1	–	inconclusive: 7.08 µM [inhibitor, partial curve, poor fit]
Cc1oc(-c2ccccc2Cl)nc1CS(=O)CC(=O)NCCc1ccccc1 (stereo not drawn)	–	inconclusive: 22.4 µM [inhibitor, single point]
O=C1CC(N(CCc2ccccc2)C(=S)Nc2ccccc2)C(=O)N1c1ccc(Br)cc1 (stereo not drawn)	–	inconclusive: 35.5 µM [inhibitor, single point]
Cc1ccc(O)c(CNc2cccc3cccnc23)c1	–	inconclusive: 20 µM [inhibitor, single point]
O=C(CCN=C1NS(=O)(=O)c2ccccc21)OCc1cccc(Cl)c1	inactive: -1.26%	–
NS(=O)(=O)c1ccc(CCNC(=O)C(=O)NCC2OCCN2S(=O)(=O)c2cc(F)ccc2F)cc1 (stereo not drawn)	inactive: 8.2%	–
NCC1CCN(c2nc3ccccc3c3c2CCCC3)CC1	–	inconclusive: 35.5 µM [inhibitor, single point]
Cc1cnc2c(c1SCC(=O)Nc1ccc(F)cc1F)c(=O)n(C)c(=O)n2C	inactive: -0.441%	–
COc1ccc(CCN=C(C)C2=C(O)C(c3ccccc3)OC2=O)cc1OC (stereo not drawn)	–	inconclusive: 17.8 µM [inhibitor, single point]
Cc1ccc(C)c(S(=O)(=O)NC(C)C(=O)Nc2ccc(-c3nc4ccccc4s3)cc2)c1 (stereo not drawn)	–	inconclusive: 35.5 µM [inhibitor, single point]
COC(=O)[C@@]1(C)[C@H]2C(=O)N(C)C(=O)[C@H]2[C@H]2CN=C(SCc3ccc(Cl)cc3)N21	inactive: 2.58%	–
COc1ccc(N(Cc2cccs2)C(=O)COc2ccc(C(C)C)cc2)cc1	–	inconclusive: 11.2 µM [inhibitor, partial curve, poor fit]
CCCS(=O)(=O)NC(=O)C1(C)CCN(C(=O)c2ccc(F)c(C)c2)C1 (stereo not drawn)	–	inconclusive: 35.5 µM [inhibitor, single point]
CCOc1ccc(S(=O)(=O)NCc2ccccc2Cl)cc1C(N)=O	–	inconclusive: 22.4 µM [inhibitor, single point]
COc1ccc(-c2nnn(CC(=O)N(CCN3CCOCC3)C(C(=O)NC3CCCC3)c3ccco3)n2)cc1 (stereo not drawn)	–	inconclusive: 35.5 µM [inhibitor, single point]
O=C(/C=C/c1cccc(Br)c1)c1ccc2c(c1)OCO2	–	inconclusive: 22.4 µM [inhibitor, single point]
Cc1ccc(NC(=O)C(c2ccccc2)N2Cc3ccccc3C2=O)cc1Cl (stereo not drawn)	–	inconclusive: 0.631 µM [inhibitor, partial curve, poor fit]

SMILES	activity, negative = inhibition	Potency
COc1ccc(NC(=O)CN(C)C(=O)c2cccc(S(=O)(=O)N3CCN(c4ccc(F)cc4)CC3)c2)cc1	inactive: -5.56%	–
COc1ccc(CNc2cc(-c3ccc(OC)cc3)nc3nncn23)cc1	–	inconclusive: 11.2 µM [inhibitor, partial curve, poor fit]
CCN(CC)S(=O)(=O)c1cccc(NC(=O)COc2ccc(C#N)cc2OC)c1	inactive: 23.9%	–
CCCCc1ccc(S(=O)(=O)NNC(=S)NCc2ccco2)cc1	inactive: -2.05%	–
CCCCCc1c(C)nc(N2CCc3ccccc32)[nH]c1=O	inactive: 9.8%	–
COc1ccc(C2/C=C\CN(S(=O)(=O)/C=C/c3ccccc3)CC(=O)N2Cc2ccc(F)cc2)cc1 (stereo not drawn)	–	inconclusive: 15.8 µM [inhibitor, single point]
Cn1c(Sc2ccc(C(=O)O)cc2[N+](=O)[O-])nnc1-c1ccccc1	–	inconclusive: 3.98 µM [inhibitor, single point]
CN(C)CCNC(=O)/C(=C/c1ccc(-c2cccc(Cl)c2)o1)NC(=O)c1ccccc1	inactive: -19.2%	–
Cn1c(=O)n(-c2cccc(Cl)c2)c(=O)c2sc3ccccc3c21	inactive: -2.66%	–
CCOC(=O)c1c(C)[nH]c(C(=O)OC/C(O)=C(\C#N)c2nc3ccccc3[nH]2)c1C	inactive: -14.7%	–
CC(=O)Nc1cccc(/C(C)=N/Nc2ccc(S(=O)(=O)Nc3ccccc3C(=O)O)cc2[N+](=O)[O-])c1	–	inconclusive: 0.562 µM [inhibitor, full curve, poor fit]
CCN(CC)CCCNC(=O)c1cc2c(-c3ccc(Cl)cc3)nn(C)c2s1	–	inconclusive: 35.5 µM [inhibitor, single point]
O=c1c2c3c(sc2nc2n1CCCC2)CCC3	inactive: -3.02%	–
Cc1ccc(N(CC(=O)NCc2ccccc2)C(=O)CCC(=O)Nc2ccccn2)cc1C	inactive: -19.3%	–
COc1ccccc1C1CC(c2ccccc2)Nc2ncnn21 (stereo not drawn)	inactive: -28.5%	–
CNC(=O)c1sc2ncccc2c1-n1cccc1	inactive: -0.575%	–
CCCS(=O)(=O)N1CC(=O)N(c2ccccc2C)C(C)(C(=O)NC2CCCC2)C1 (stereo not drawn)	inactive: 0%	–
CCC(C)Nc1nc2c(c(=O)n(C)c(=O)n2C)n1C (stereo not drawn)	inactive: -12.6%	–
CC1CCC(NC(=O)c2cc3ccccc3cc2O)CC1 (stereo not drawn)	–	inconclusive: 15.8 µM [inhibitor, single point]
COc1cc(O)c(C(CCN2CCN(c3ccccc3)CC2)c2ccc(N(C)C)cc2)c(OC)c1 (stereo not drawn)	–	inconclusive: 11.2 µM [inhibitor, partial curve]
CN1CCN(CC(O)Cn2c3ccccc3c3ccccc32)CC1 (stereo not drawn)	inactive: 6.72%	–
Cc1nnc2n(-c3ccccc3)c(=O)c3c4c(sc3n12)COC(C)(C)C4	–	inconclusive: 22.4 µM [inhibitor, single point]
COC(=O)NCc1c(C)nn(-c2ccccc2)c1-n1cccc1	inactive: 15.5%	–

SMILES	activity, negative = inhibition	Potency
N#Cc1ccc(NC(=O)Cn2cnc(S(=O)(=O)N3CCCC3)c2)cc1	inactive: -7.86%	–
Cc1sc2ncnc(N3CCC(C(=O)Nc4ccc(OC(F)F)c(Cl)c4)CC3)c2c1C	–	inconclusive: 25.1 µM [inhibitor, single point]
CN(C)Cc1csc(NC(=O)Nc2cccc(Cl)c2)n1	–	inconclusive: 35.5 µM [inhibitor, single point]
CC(C)(C)OC(=O)N1CCC(c2c(C(=O)Nc3ccc4c(c3)OCCO4)cnn2-c2ccccc2)CC1	–	inconclusive: 0.112 µM [inhibitor, full curve, poor fit]
C/C(=N\NS(=O)(=O)c1ccc(C(C)(C)C)cc1)c1ccccc1	–	inconclusive: 35.5 µM [inhibitor, single point]
CCS(=O)(=O)c1nc(S(=O)(=O)c2ccc(Cl)cc2)c(N2CCN(CCO)CC2)s1	–	inconclusive: 5.01 µM [inhibitor, partial curve]
CCCCCCC1CC(=O)NC(=S)N1 (stereo not drawn)	inactive: -2.52%	–
O=C(CN1CCN(S(=O)(=O)c2ccc(Br)cc2)CC1)Nc1ccc(F)cc1	–	inconclusive: 14.1 µM [inhibitor, single point]
CCOC(=O)c1c(NC(=O)CSc2nnc(-c3c[nH]c4ccccc34)n2CCOC)sc2c1CCCCC2	–	inconclusive: 35.5 µM [inhibitor, single point]
COc1cc(NC(=O)[C@@H]2CCCN(S(=O)(=O)c3cccc4cccnc34)C2)cc(OC)c1OC	inactive: -14.1%	–
Cc1ccc2c(c1)C1NC(=S)NC(C)(O2)C1C(=O)Nc1ccc(Cl)cc1 (stereo not drawn)	–	inconclusive: 12.6 µM [inhibitor, single point]
CCOc1ccc(Br)cc1CNCCSc1nnnn1-c1ccccc1	–	inconclusive: 35.5 µM [inhibitor, single point]
O=C(NCC1CCCO1)c1cc(C(=O)c2ccc(Cl)cc2Cl)c[nH]1 (stereo not drawn)	inactive: -0.0945%	–
CCOC(=O)COc1ccc(Br)cc1/C=C\c1[nH]c(=O)[nH]c(=O)c1[N+](=O)[O-]	–	inconclusive: 35.5 µM [inhibitor, partial curve, poor fit]
Cc1cc(C)cc(NC(=O)C2CCC(CNS(=O)(=O)c3ccc4c(c3)C(C)(C)C(=O)N4C)CC2)c1 (stereo not drawn)	–	inconclusive: 20 µM [inhibitor, partial curve]
O=C1/C(=C/c2cccs2)SC(=S)N1c1cccc(O)c1	–	inconclusive: 12.6 µM [inhibitor, single point]
Cc1ccccc1C(=O)N1CCc2cc(-c3nc(NC(=O)Cc4ccc5c(c4)OCO5)sc3C)ccc21	–	inconclusive: 35.5 µM [inhibitor, partial curve, poor fit]
CC1(C(=O)Nc2cccc3cccnc23)CCN1C(=O)Cc1ccc(Cl)cc1Cl (stereo not drawn)	–	inconclusive: 3.55 µM [inhibitor, full curve, poor fit]
O=C(NNC(=S)Nc1ccc(Cl)cc1Cl)c1ccc(N2CCOCC2)c([N+](=O)[O-])c1	–	inconclusive: 35.5 µM [inhibitor, single point]
O=C(CSc1cn(CCNC(=O)c2ccc3ccccc3c2)c2ccccc12)NCc1ccco1	–	inconclusive: 35.5 µM [inhibitor, single point]
COc1ccc(NS(=O)(=O)c2ccc(N3CCOCC3)c(NC(=O)c3ccc(OC)cc3)c2)cc1	–	inconclusive: 14.1 µM [inhibitor, single point]
Cc1cc2ccccc2n2c(SCC(=O)N3CCc4ccccc4C3)nnc12	inactive: 17.4%	–
